# Out of some 310,000 compounds screened, about 2,200 (0.71%) showed an effect of 50% or more. Effects have a minus sign here. The list shows a part of the results.
# Biological target: human ether-à-go-go-related gene (hERG) potassium channel (human, UniProt Q12809)
# Test: primary screen, population patch clamp on CHO cells stably expressing hERG
# Sequence of human ether-à-go-go-related gene (hERG) potassium channel (Q12809 whole entry, looked up): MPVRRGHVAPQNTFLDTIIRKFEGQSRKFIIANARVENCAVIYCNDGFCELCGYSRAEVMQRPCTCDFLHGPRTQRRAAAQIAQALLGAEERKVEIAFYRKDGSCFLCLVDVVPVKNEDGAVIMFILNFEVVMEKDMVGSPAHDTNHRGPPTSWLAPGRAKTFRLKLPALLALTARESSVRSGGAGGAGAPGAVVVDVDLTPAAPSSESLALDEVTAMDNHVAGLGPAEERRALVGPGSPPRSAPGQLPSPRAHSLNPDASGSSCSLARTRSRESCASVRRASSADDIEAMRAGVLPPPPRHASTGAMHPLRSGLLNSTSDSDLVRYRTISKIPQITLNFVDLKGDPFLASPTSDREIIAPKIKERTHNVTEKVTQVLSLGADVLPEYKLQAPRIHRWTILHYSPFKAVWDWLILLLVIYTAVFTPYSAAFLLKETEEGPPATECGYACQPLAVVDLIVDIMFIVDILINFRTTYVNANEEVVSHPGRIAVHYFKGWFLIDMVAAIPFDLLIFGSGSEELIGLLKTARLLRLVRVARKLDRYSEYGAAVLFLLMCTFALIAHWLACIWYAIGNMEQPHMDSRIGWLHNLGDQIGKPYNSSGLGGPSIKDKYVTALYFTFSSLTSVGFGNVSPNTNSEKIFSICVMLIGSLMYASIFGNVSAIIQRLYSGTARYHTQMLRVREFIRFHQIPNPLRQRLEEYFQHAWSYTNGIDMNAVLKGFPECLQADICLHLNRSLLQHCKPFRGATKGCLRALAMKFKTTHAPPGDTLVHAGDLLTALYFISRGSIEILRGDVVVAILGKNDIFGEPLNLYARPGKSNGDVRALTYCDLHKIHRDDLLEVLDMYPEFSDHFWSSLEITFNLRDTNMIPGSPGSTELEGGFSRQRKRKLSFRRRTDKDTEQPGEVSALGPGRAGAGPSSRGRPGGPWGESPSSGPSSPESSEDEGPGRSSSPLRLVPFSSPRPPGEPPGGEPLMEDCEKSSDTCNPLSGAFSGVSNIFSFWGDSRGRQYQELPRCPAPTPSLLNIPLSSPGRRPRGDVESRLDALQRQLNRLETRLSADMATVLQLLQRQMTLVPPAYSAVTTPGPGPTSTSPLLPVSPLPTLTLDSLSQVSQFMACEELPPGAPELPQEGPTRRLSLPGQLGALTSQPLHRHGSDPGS
row,SMILES,"hERG current change (%, negative = inhibition) at 1uM"
1,Cc1ccc2[nH]c(=O)c(C(c3nnnn3CC3CCCO3)N3CCOCC3)cc2c1 (stereo not shown),10.6%
2,CCOc1ccc(/C=N/NC(=O)c2c(-c3ccccc3)noc2C)cc1,1.65%
3,CC(C(=O)NNS(=O)(=O)c1cccc(C(F)(F)F)c1)n1nnc(N2CCOCC2)n1 (stereo not shown),-4.41%
4,Cc1cc(C)n(-c2ccc(Cl)c(Cl)c2)n1,8.93%
5,Cc1occc1-c1nnc(SCC(=O)c2ccc(F)cc2)n1Cc1ccco1,-7.47%
6,C=CCNc1nc(Nc2ccc(OC)cc2OC)nc(OCC)n1,3.28%
7,CC(=O)Nc1cccc(NC(=S)Nc2cccc(Cl)c2Cl)c1,12.2%
8,O=C(NCCc1csc(-c2ccc(Cl)cc2)n1)c1ccco1,4.34%
9,CNC(=O)c1c(N)sc2c1CCCCC2,2.02%
10,O=C(Nc1cccc(F)c1)NC1CCCCCCC1,16.3%
11,CCS(=O)(=O)c1ccc2c(c1)N(S(=O)(=O)c1ccccc1)CC(C(=O)O)O2 (stereo not shown),1.48%
12,COc1cc(O)sc1C=Nc1ccc(Cl)cc1,6.9%
13,COc1ccc(NC(=O)CSCC(=O)NCc2ccco2)cc1,-0.79%
14,CCNc1nc2c(c(=O)[nH]c(=O)n2C)n1CCCc1ccccc1,11.5%
15,CCOc1ccccc1NC(=O)CN1C(=O)COc2ccccc21,8.85%
16,CCOc1ccc(/C=N/NC(=O)c2nnn(-c3nonc3N)c2CN(C)C2CCCCC2)cc1,1.52%
17,Cc1cc(/C=N/NC(N)=S)c(C)n1-c1cccc(Cl)c1,-1.59%
18,CC(NC(=O)c1ccccc1NC(=O)CSc1nnnn1C)c1ccccc1 (stereo not shown),3.34%
19,COc1ccc(OC)c(-n2c(C)cc(C=O)c2C)c1,14%
20,Cc1ccc(C)c(-n2c(SCC(=O)N3CCC(C(=O)O)CC3)nnc2-c2cccc(Cl)c2)c1,22.2%
21,Cc1c(CN2CCN(CC(C)(C)C)C(CCO)C2)[nH]c2ccccc12 (stereo not shown),16.1%
22,N#Cc1ccc(-c2csc(NC(=O)/C=C/c3cccs3)n2)cc1,15%
23,CN(c1ccccc1)S(=O)(=O)c1cccc(C(=O)NCCc2ccc(O)c(O)c2)c1,-4.6%

row,SMILES,"hERG current change (%, negative = inhibition) at 1uM"
1,Cc1ccc(NC(=O)c2nn(C34CC5CC(CC(C5)C3)C4)cc2[N+](=O)[O-])cc1,-2.47%
2,CCOc1ccccc1C(=O)NC1CCN(Cc2ccccc2)CC1,-23.2%
3,COC(=O)c1cc(C(=O)NC(C)C2CC3CCC2C3)cc([N+](=O)[O-])c1 (stereo not shown),8.06%
4,Cc1nc(-c2ccc(NC(=O)C3CC3)cc2)cs1,11.2%
5,O=C(Nc1nccs1)c1cc(Cl)nc2ccccc12,12.7%
6,O=c1nc(-c2ccccc2)nc(-c2ccccc2)[nH]1,7.59%
7,O=C1CC(c2ccccc2Br)c2cc3c(cc2N1)CCC3 (stereo not shown),9.66%
8,CCOc1ccc(S(=O)(=O)Nc2ccccc2SC)c2cccnc12,5.43%
9,CCOC(=O)c1c(NC(=O)CSc2nnc(-c3ccccc3)n2CC)sc(C(C)=O)c1C,4.46%
10,CCOC(=O)Nc1oc2ccccc2c(=O)c1CN1CCOCC1,10.9%
11,COc1ccccc1C(C)NCC(=O)NCc1ccc(C)cc1 (stereo not shown),3.71%
12,CC(=O)N1c2ccc(S(=O)(=O)N3CCC(C(=O)NC4CCC(C)CC4)CC3)cc2CC1C (stereo not shown),14%
13,CC(C)Oc1ccc(CCN=C(N)N=C(N)N)cc1Cl.Cl,12.5%
14,O=C(CCN1CCCCC1c1cccnc1)NCc1ccccc1 (stereo not shown),7.17%
15,CCn1c(=O)c2cc(C(=O)N(C)c3ccccc3F)sc2c2ccccc21,0.0672%
16,CCn1c(N)c(C(=O)NCC2CCCO2)sc1=S (stereo not shown),15%
17,COC(=O)CCC(=O)Nc1ccccc1C(=O)Nc1ccccc1,12.6%
18,COc1ccc(CN2C(=O)CS/C2=N/N=C/c2ccccc2)cc1,10.8%
19,Cl.O=C(CN1CCN(C2CCCCC2)CC1)Nc1ccccc1-c1ccccc1,-70%
20,O=C(COC(=O)C1CC1)Nc1ccc2[nH]c(=O)[nH]c2c1,11.1%
21,CC(C)c1nc2sc3c(c2c(=O)o1)CCCC3,9.49%
22,CCC(=O)N1CCN(c2ccccc2NC(=O)c2ccc([N+](=O)[O-])o2)CC1,-60.5%
23,NC(=O)CSc1nnc2ccc(-c3ccco3)nn12,15.4%

row,SMILES,"hERG current change (%, negative = inhibition) at 1uM"
1,Cc1ccc(NC(=O)Nc2cccnc2)cc1Cl,3.43%
2,CC(C)(C)C(=O)Nc1nnc(SCc2ccc(F)cc2)s1,-1.96%
3,O=C(CSC1=NS(=O)(=O)c2ccccc2N1)N1CCCCC1,13%
4,CCOc1ccc(N(CC(=O)NCc2ccc(OC)cc2)S(=O)(=O)c2c(C)[nH]c(=O)[nH]c2=O)cc1,14%
5,CC(NS(=O)(=O)c1ccccc1)c1n[nH]c(=S)n1-c1ccccc1 (stereo not shown),1.37%
6,Cn1c(=O)c2c(nc(CN3CCN(C(=O)c4ccco4)CC3)n2CCc2ccccc2)n(C)c1=O,-28.8%
7,CCOC(=O)c1ccc(N2NC(=O)/C(=C/c3ccc(OC(=O)c4ccco4)c(OC)c3)C2=O)cc1,13.3%
8,COc1ccc(CS(=O)c2nc(C)cc(C)c2S(C)(=O)=O)cc1 (stereo not shown),7.52%
9,CCc1ccc(N2CC34C=CC(O3)C(C(=O)OC(C)C)C4C2=O)cc1 (stereo not shown),10.8%
10,O=S(N1CCCCCC1)C12CC3CC(CC(C3)C1)C2 (stereo not shown),8.91%
11,COc1ccc(OC)c(NC2=NCCCS2)c1,6.68%
12,O=C(CSS(=O)(=O)[O-])N1CCN(C(=O)c2ccoc2)CC1.[Na+],15.5%
13,O=C1C2N=NN(CC(=O)N3N=C(c4cccc5ccccc45)CC3c3ccccc3)C2C(=O)N1c1ccccc1 (stereo not shown),4.13%
14,Cc1cc(C)n(CCN(C)c2nc3nonc3nc2NC2CC2)n1,20.9%
15,Cc1ccc(NC(=O)CS(=O)(=O)c2cn(C)c3ccccc23)c(C)c1,7.5%
16,Cc1nc2scc(-c3ccccc3)c2c(=O)n1/N=C/c1ccco1,-1.76%
17,Clc1cc2c(c(Cn3cnc4ccccc43)c1)OCOC2,16.7%
18,CC1(C)C2CCC1(C)C([NH2+]c1ccccc1)C2.[Cl-] (stereo not shown),14.4%
19,COc1cccc(NC(=S)NC2CC3CCCC(C2)N3C2CCCC2)c1 (stereo not shown),-1.53%
20,CS(=O)(=O)O.c1ccc2c(c1)CCc1c(-c3ccncc3)n[nH]c1-2,5.71%
21,O=S(=O)(c1ccccc1)N1CCC(O)(CSc2ccc(F)cc2)CC1,12.6%
22,CC(CNS(=O)(=O)c1ccc(Br)cc1)CN(C)C (stereo not shown),1.07%
23,O=c1cc(N2CCN(c3ccccc3)CC2)[nH]c(=O)n1C1CCCCC1,11.3%

row,SMILES,"hERG current change (%, negative = inhibition) at 1uM"
1,Cc1c(NC(=O)c2cccc(NS(C)(=O)=O)c2)c(=O)n(-c2ccccc2)n1C,3.72%
2,CCc1ccc(OCCCC(=O)Nc2nnc(C3CCCO3)s2)cc1 (stereo not shown),13.5%
3,CC(=O)Nc1ccc(NC(=O)N(c2ccccc2)c2ccccc2)cc1,12.2%
4,COc1ccccc1CNCc1cccs1.Cl,0.645%
5,Cc1onc(-c2ccccc2Cl)c1C(=O)N1CCN(C=O)CC1,11.1%
6,O=C(Cc1ccccc1F)Nc1nc(-c2cccnc2)cs1,-5.73%
7,COc1ccc(NC(=O)CSc2nnc(-c3ccncc3)o2)c(OC)c1,8.8%
8,O=C(CSc1nnc2c(Cl)cc(Cl)cn12)N1CCN(S(=O)(=O)c2ccccc2)CC1,1.61%
9,CN(C)S(=O)(=O)c1ccc2c(c1)C(CC(=O)O)NC2=O (stereo not shown),11.2%
10,CCC(=O)Nc1cccc(-c2ccc(N3CCCCC3)nn2)c1,5.2%
11,CCCCc1nnc(NC(=O)Cc2ccc(OC)c(S(=O)(=O)N3CCOCC3)c2)s1,13.9%
12,O=C(/C=C/c1ccc(O)c(O)c1)c1ccc(S(=O)(=O)N2CCCCCC2)cc1,22.8%
13,COc1ccc(NC(=O)C2=C(C)C(=O)OC23CCC(C)CC3)cc1Cl (stereo not shown),9.36%
14,CCOc1ccc2c(c1)-c1c(ssc1=S)C(C)(C)N2C,1.36%
15,O=C(/C=N/O)Nc1ccccc1,-2.37%
16,Cc1cccc(C)c1NC(=O)CNC(=O)Cc1ccc(Br)cc1,14%
17,COc1cc2cc(CN(CCO)S(=O)(=O)c3ccccc3Cl)c(=O)[nH]c2cc1OC,4.93%
18,COc1ccc(N2CC(C(=O)Nc3ncccc3C)CC2=O)cc1 (stereo not shown),-0.346%
19,CCOc1ccc(CN2CCN(Cc3cnn(CC)c3C)CC2CCO)cc1 (stereo not shown),0.806%
20,CC(=O)O.Cc1ccc(C2C(C(=O)c3cccs3)=C(O)C(=O)N2c2ccc(S(N)(=O)=O)cc2)cc1 (stereo not shown),14.7%
21,Cn1ncc(Cl)c1C(=O)Nc1ccc2c(c1)CCC2,19.9%
22,O=C1c2ccccc2C(=O)N1c1cccc2cccnc12,17.2%
